{"source": "PubChem BioAssay", "note": "The shares of active, inactive and inconclusive entries below differ from those in the screen. Active and inactive are the calls of the source.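 How the source made its calls: active means thallium flux slope above the same plate's solvent-control mean plus 3 SD in both duplicate wells; inconclusive means duplicate wells that disagreed; inactive means the rest.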"}
{"experiment": "native HEK Tl+ uptake effects, second counter-screen – HEK cells, counterscreen 2, counter-screen for KCC2 modulator project, confirmation (AID 1718);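 further: run without ouabain in cells lacking the KCC2 cotransporter; slope of fluorescence scaled to its starting value between 10 and 20 s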", "conditions": "HEK293 parental, thallium flux FluoZin-2 fluorescence slope; at 10 µM", "outline": "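Material: parental HEK cells. Medium: HBSS, 20 mM HEPES. Reagent: thallium sulfate stimulus, 12 mM in buffer, pH 7.3. Incubation: overnight cell culture at 37 °C, 48 min dye loading, compound before thallium. Signal: FluoZin-2 fluorescence kinetics. Read-out basis: thallium influx rate. Repeats: Per-replicate slope values.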"}
{"smiles": "Fc1ccc(NC(=S)Nc2nccs2)cc1", "thallium flux slope": "active: 0.026"}
{"smiles": "Cc1cc(NC(=O)c2cccc(S(=O)(=O)N3CC(c4ccccc4)CC3=O)c2)no1", "note": "(stereo not given)", "thallium flux slope": "inconclusive: 0.00937"}
{"smiles": "COc1cccc(NC(=S)N/N=C2\\CC3CCC2(C)C3(C)C)c1", "note": "(stereo not given)", "thallium flux slope": "active: 0.0301"}
{"smiles": "COc1ccc(NC(=S)N/C(=N/S(=O)(=O)c2ccc(C)cc2)c2ccccc2)cc1", "thallium flux slope": "inactive: 0.0122"}
{"smiles": "O=C1COc2ccc(C(=O)CSc3nc4ccccc4c(=O)n3-c3ccc(Cl)c(Cl)c3)cc2N1", "thallium flux slope": "inconclusive: 0.0113"}
{"smiles": "O=C(Cc1coc(-c2ccc(F)cc2)n1)Nc1ccccc1", "thallium flux slope": "inactive: 0.00978"}
{"smiles": "CCc1ccc(S(=O)(=O)NC(=S)NC2CCCCC2)cc1", "thallium flux slope": "active: 0.0176"}
{"smiles": "O=C1OCCC1Sc1nc2ccccc2c(=O)n1Cc1ccc(F)cc1", "note": "(stereo not given)", "thallium flux slope": "active: 0.0327"}
{"smiles": "CC(=O)c1c(N2CCOCC2)[nH]c(-c2ccccc2)nc1=S", "thallium flux slope": "inconclusive: 0.0109"}
{"smiles": "O=C(CSc1nnc(Cc2ccccc2)o1)N1CCCc2ccccc21", "thallium flux slope": "inconclusive: 0.00883"}
{"smiles": "Fc1ccc(NC(=S)Nc2cc(Cl)ccc2Cl)cc1", "thallium flux slope": "active: 0.0146"}
{"smiles": "Cc1ccc(C(=O)NC(=S)Nc2ccccc2C)cc1", "thallium flux slope": "active: 0.0284"}
{"smiles": "CCOc1cccc2sc(NC(=O)c3ccc(Br)s3)nc12", "thallium flux slope": "active: 0.0315"}
{"smiles": "CCCN1C(=O)/C(=C/c2ccc(C)o2)NC1=S", "thallium flux slope": "active: 0.0178"}
{"smiles": "S=c1[nH]nc(C2CCCCC2)n1/N=C/c1cccs1", "thallium flux slope": "inconclusive: 0.0117"}
{"smiles": "Cc1sc2nc(C3CC3)nc(SCC(=O)N3CCCc4ccccc43)c2c1C", "thallium flux slope": "active: 0.012"}
{"smiles": "O=C(O)c1cccc(NC(=S)NC(=O)c2ccc(-c3ccccc3)cc2)c1", "thallium flux slope": "inconclusive: 0.00877"}
{"smiles": "Nn1c(COc2ccc(Cl)cc2)n[nH]c1=S", "thallium flux slope": "inactive: 0.00986"}
{"smiles": "COc1ccc(C(=O)NC(=S)NNC(=O)COc2ccccc2)cc1", "thallium flux slope": "active: 0.0207"}
{"smiles": "c1ccc(CSC2=NNC(c3ccccn3)S2)cc1", "note": "(stereo not given)", "thallium flux slope": "active: 0.0176"}
{"smiles": "N#Cc1c(-c2ccccc2)nc(SCc2nc(N)nc(N3CCCCC3)n2)[nH]c1=O", "thallium flux slope": "inconclusive: 0.00902"}
{"smiles": "O=S(=O)(NCc1csc(-c2ccccc2)n1)c1ccc(Cl)s1", "thallium flux slope": "inconclusive: 0.0093"}
{"smiles": "CCn1c(SCC(=O)N2CCN(c3ccccc3)CC2)nc2c(c1=O)SC(C)C2", "note": "(stereo not given)", "thallium flux slope": "active: 0.00836"}
{"smiles": "N#Cc1nc(Cc2cccc3ccccc23)oc1NCC1CCCO1", "note": "(stereo not given)", "thallium flux slope": "inactive: 0.0109"}
{"smiles": "Cc1[nH]c(=S)sc1Cc1ccc(Cl)c(Cl)c1", "thallium flux slope": "active: 0.0149"}
{"smiles": "O=C(Cn1cnc2c(nnn2Cc2ccc(F)cc2)c1=O)N1CCN(c2ccccc2)CC1", "thallium flux slope": "inactive: 0.0109"}
{"smiles": "COc1ccc(-c2cc(C)nc(SCc3cccc(C(=O)O)c3)n2)cc1", "thallium flux slope": "inconclusive: 0.0106"}
{"smiles": "CCOC(=O)SC1=N/C(=C\\c2ccc(N(C)C)cc2)C(=O)S1", "thallium flux slope": "active: 0.0106"}
{"smiles": "O=C(Nc1nnc(C2=COCCO2)o1)c1ccc(Cc2ccccc2)cc1", "thallium flux slope": "active: 0.0188"}
{"smiles": "Clc1c(Cl)c(Cl)c2n[nH]nc2c1Cl", "thallium flux slope": "active: 0.00736"}
{"smiles": "O=C(NC(=S)Nc1ccccc1N1CCCCC1)c1cccs1", "thallium flux slope": "active: 0.0158"}
{"smiles": "O=C(COc1ccc([N+](=O)[O-])cc1)NNC(=S)NC(=O)c1ccc(Br)cc1", "thallium flux slope": "inconclusive: 0.0113"}
{"smiles": "Cc1[nH]n(-c2ccccc2)c(=O)c1N=Nc1ccccc1C(=O)N1CCCCC1", "thallium flux slope": "inconclusive: 0.0112"}
{"smiles": "CCc1nn(C(C)C(=O)N2CCc3ccccc3C2)c(=O)c2cc3occc3n12", "note": "(stereo not given)", "thallium flux slope": "inconclusive: 0.00941"}
{"smiles": "Cc1ccccc1OCC(=O)N=Nc1c(O)n(C)c2ccccc12", "thallium flux slope": "active: 0.0221"}
